# Measured values reported in the supplement of paper PMC8728848.
# Some of the results follow.
# B1: CFEM-SCL (Saccharomyces cerevisiae), O13547 (protein)
# chain: MRATTLLSSVVSLALLSKEVLATPPACLLACVAQVGKSSSTCDSLNQVTCYCEHENSAVKKCLDSICPNNDADAAYSAFKSSCSEQNASLGD
# Tests used:
# Assay in all cases: glycan array binding signal (z-score within array); higher = stronger binding
# Conditions in all cases: glycan notation: IUPAC condensed, linker removed
# [1] = target: Neu5Ac(a2-3)Gal(b1-4)GlcNAc(b1-3)[Neu5Ac(a2-3)Gal(b1-4)GlcNAc(b1-6)]GalNAc
# In short: (§1)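 Negative Z-scores can be read as non-binding. The Z-score is calculated within each array and then averaged across arrays of one protein sequence at different concentrations or buffers and across linkers. Arrays, 3228 in all, were curated from the Consortium for Functional Glycomics database and kept only where the protein sequence was available.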
# [2] = target: Neu5Ac(a2-3)Gal(b1-4)GlcNAc(b1-6)GalNAc
# In short: as §1
# [3] = target: Neu5Ac(a2-3)Gal(b1-4)GlcNAc(b1-6)[Gal(b1-3)]GalNAc
# In short: as §1
# [4] = target: Neu5Ac(a2-3)Gal(b1-4)GlcNAc(b1-6)[Neu5Ac(a2-3)Gal(b1-3)]GalNAc
# In short: as §1
# [5] = target: Neu5Ac(a2-3)Gal(b1-4)GlcNAc6S
# In short: as §1
# [6] = target: Neu5Ac(a2-3)Gal(b1-4)[Fuc(a1-3)]GlcNAc
# In short: as §1
# [7] = target: Neu5Ac(a2-3)Gal(b1-4)[Fuc(a1-3)]GlcNAc(b1-2)Man
# In short: as §1
# [8] = target: Neu5Ac(a2-3)Gal(b1-4)[Fuc(a1-3)]GlcNAc(b1-3)Gal
# In short: as §1
# [9] = target: Neu5Ac(a2-3)Gal(b1-4)[Fuc(a1-3)]GlcNAc(b1-3)Gal(b1-4)GlcNAc
# In short: as §1
# [10] = target: Neu5Ac(a2-3)Gal(b1-4)[Fuc(a1-3)]GlcNAc(b1-3)Gal(b1-4)[Fuc(a1-3)]GlcNAc(b1-3)Gal(b1-4)[Fuc(a1-3)]GlcNAc
# In short: as §1
# [11] = target: Neu5Ac(a2-3)Gal(b1-4)[Fuc(a1-3)]GlcNAc(b1-3)GalNAc
# In short: as §1
# [12] = target: Neu5Ac(a2-3)Gal(b1-4)[Fuc(a1-3)]GlcNAc(b1-6)[Gal(b1-3)]GalNAc
# In short: as §1
# [13] = target: Neu5Ac(a2-3)Gal(b1-4)[Fuc(a1-3)]GlcNAc(b1-6)[Neu5Ac(a2-3)Gal(b1-3)]GalNAc
# In short: as §1
# [14] = target: Neu5Ac(a2-3)Gal(b1-4)[Fuc(a1-3)]GlcNAc6S
# In short: as §1
# [15] = target: Neu5Ac(a2-3)Gal6S(b1-4)GlcNAc
# In short: as §1
# [16] = target: Neu5Ac(a2-3)Gal6S(b1-4)[Fuc(a1-3)]GlcNAc
# In short: as §1
# Neu5Ac(a2-3)GalNAc = target: Neu5Ac(a2-3)GalNAc
# In short: as §1
# [17] = target: Neu5Ac(a2-3)GalNAc(b1-4)GlcNAc
# In short: as §1
# [18] = target: Neu5Ac(a2-3)[GalNAc(b1-4)]Gal(b1-4)Glc
# In short: as §1
# [19] = target: Neu5Ac(a2-3)[GalNAc(b1-4)]Gal(b1-4)GlcNAc
# In short: as §1
# [20] = target: Neu5Ac(a2-3)[GalNAc(b1-4)]Gal(b1-4)GlcNAc(b1-3)GalNAc
# In short: as §1
# [21] = target: Neu5Ac(a2-3)[Neu5Ac(a2-6)]GalNAc
# In short: as §1
# Neu5Ac(a2-6)Gal = target: Neu5Ac(a2-6)Gal
# In short: as §1
# [22] = target: Neu5Ac(a2-6)Gal(b1-3)GlcNAc(b1-3)[Gal(b1-4)GlcNAc(b1-6)]Gal(b1-4)Glc
# In short: as §1
# Neu5Ac(a2-6)Gal(b1-4)Glc = target: Neu5Ac(a2-6)Gal(b1-4)Glc
# In short: as §1
# [23] = target: Neu5Ac(a2-6)Gal(b1-4)GlcNAc
# In short: as §1
# [24] = target: Neu5Ac(a2-6)Gal(b1-4)GlcNAc(b1-2)Man
# In short: as §1
# [25] = target: Neu5Ac(a2-6)Gal(b1-4)GlcNAc(b1-2)Man(a1-3)Man(b1-4)GlcNAc(b1-4)GlcNAc
# In short: as §1
# [26] = target: Neu5Ac(a2-6)Gal(b1-4)GlcNAc(b1-2)Man(a1-3)[Gal(b1-4)GlcNAc(b1-2)Man(a1-6)]Man(b1-4)GlcNAc(b1-4)GlcNAc
# In short: as §1
# [27] = target: Neu5Ac(a2-6)Gal(b1-4)GlcNAc(b1-2)Man(a1-3)[GlcNAc(b1-2)Man(a1-6)]Man(b1-4)GlcNAc(b1-4)GlcNAc
# In short: as §1
# [28] = target: Neu5Ac(a2-6)Gal(b1-4)GlcNAc(b1-2)Man(a1-3)[GlcNAc(b1-4)][Neu5Ac(a2-6)Gal(b1-4)GlcNAc(b1-2)Man(a1-6)]Man(b1-4)GlcNAc(b1-4)GlcNAc
# In short: as §1
binder,measurement,setting,value
B1,glycan array binding signal (z-score),[1],-0.31
same,glycan array binding signal (z-score),[2],-0.34
same,glycan array binding signal (z-score),[3],0.891
same,glycan array binding signal (z-score),[4],-0.272
same,glycan array binding signal (z-score),[5],-0.32
same,glycan array binding signal (z-score),[6],-0.25
same,glycan array binding signal (z-score),[7],-0.207
same,glycan array binding signal (z-score),[8],-0.308
same,glycan array binding signal (z-score),[9],0.144
same,glycan array binding signal (z-score),[10],-0.258
same,glycan array binding signal (z-score),[11],1.1
same,glycan array binding signal (z-score),[12],0.813
same,glycan array binding signal (z-score),[13],0.492
same,glycan array binding signal (z-score),[14],-0.375
same,glycan array binding signal (z-score),[15],-0.311
same,glycan array binding signal (z-score),[16],-0.364
same,glycan array binding signal (z-score),Neu5Ac(a2-3)GalNAc,-0.32
same,glycan array binding signal (z-score),[17],-0.302
same,glycan array binding signal (z-score),[18],-0.229
same,glycan array binding signal (z-score),[19],-0.297
same,glycan array binding signal (z-score),[20],-0.189
same,glycan array binding signal (z-score),[21],-0.313
same,glycan array binding signal (z-score),Neu5Ac(a2-6)Gal,-0.191
same,glycan array binding signal (z-score),[22],-0.277
same,glycan array binding signal (z-score),Neu5Ac(a2-6)Gal(b1-4)Glc,-0.298
same,glycan array binding signal (z-score),[23],-0.282
same,glycan array binding signal (z-score),[24],-0.345
same,glycan array binding signal (z-score),[25],-0.209
same,glycan array binding signal (z-score),[26],-0.318
same,glycan array binding signal (z-score),[27],-0.336
same,glycan array binding signal (z-score),[28],-0.223
